Data: the supplement of paper PMC4967469

Compound: CC1=C(C(=O)Nc2cc3cn[nH]c3cc2F)C(c2ccc(C(F)(F)F)cc2)CC(=O)N1 [GSK429286A]
Experiment: Viability of human cancer cell lines after 72 h of drug (GDSC screen)
Settings: top dose inferred
Protocol: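 Human cancer cell lines in 384-well plates, medium with 10% serum, drug for 72 h over a 256-fold dose range (nine 2-fold or five 4-fold steps up to the top dose). Adherent lines were fixed and stained with the nucleic acid dye Syto60, suspension lines read with resazurin; signal relative to control wells, capped at 0 and 100%. One two-parameter sigmoid per drug and line, fitted in a mixed model over all curves with the slope shared within a line.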

Point of comparison: “SK-GT-4 (oesophagus, adherent, top dose 20 µM)”, AUC 0.98. Against it:
- RPMI-8226 (myeloma, suspension, top dose 20 µM) — lower, 0.979
- RPMI-8402 (T-cell lymphoblastic leukaemia, suspension, top dose 20 µM) — lower, 0.744
- RPMI-8866 (chronic myeloid leukaemia, suspension, top dose 20 µM) — higher, 0.984
- RS4-11 (leukaemia, suspension, top dose 20 µM) — lower, 0.941
- RT4 (bladder, adherent, top dose 20 µM) — higher, 0.987
- RT-112 (bladder, adherent, top dose 20 µM) — higher, 0.982
- RVH-421 (melanoma, adherent, top dose 20 µM) — lower, 0.947
- RXF393 (kidney, adherent, top dose 20 µM) — lower, 0.876
- Raji (Burkitt lymphoma, suspension, top dose 20 µM) — higher, 0.985
- Ramos-2G6-4C10 (Burkitt lymphoma, suspension, top dose 20 µM) — lower, 0.883
- SAS (head and neck, adherent, top dose 20 µM) — lower, 0.96
- SAT (head and neck, adherent, top dose 20 µM) — lower, 0.968
- SBC-1 (small cell lung carcinoma, suspension, top dose 20 µM) — higher, 0.984
- SBC-3 (small cell lung carcinoma, adherent, top dose 20 µM) — lower, 0.947
- SBC-5 (small cell lung carcinoma, adherent, top dose 20 µM) — higher, 0.993
- SCC90 (head and neck, adherent, top dose 20 µM) — lower, 0.824
- SCC-3 (B-cell lymphoma, suspension, top dose 20 µM) — higher, 0.992
- SCC-4 (head and neck, adherent, top dose 20 µM) — higher, 0.984
- SCC-9 (head and neck, adherent, top dose 20 µM) — higher, 0.981
- SCC-15 (head and neck, adherent, top dose 20 µM) — the same, 0.98
- SCC-25 (head and neck, adherent, top dose 20 µM) — higher, 0.984
- SCH (stomach, adherent, top dose 20 µM) — higher, 0.987
- SF126 (glioma, adherent, top dose 20 µM) — lower, 0.96
- SF268 (glioma, adherent, top dose 20 µM) — lower, 0.961
- SF295 (glioma, adherent, top dose 20 µM) — lower, 0.959
- SF539 (glioma, adherent, top dose 20 µM) — lower, 0.959
- SH-4 (melanoma, adherent, top dose 20 µM) — lower, 0.955
- SHP-77 (small cell lung carcinoma, semi-adherent, top dose 20 µM) — lower, 0.937
- SIG-M5 (acute myeloid leukaemia, suspension, top dose 20 µM) — lower, 0.535
- SIMA (neuroblastoma, adherent, top dose 20 µM) — lower, 0.932
- SISO (cervix, adherent, top dose 20 µM) — lower, 0.959
- SJRH30 (rhabdomyosarcoma, adherent, top dose 20 µM) — lower, 0.944
- SJSA-1 (bone, adherent, top dose 20 µM) — lower, 0.976
- SK-CO-1 (large intestine, adherent, top dose 20 µM) — lower, 0.97
- SK-ES-1 (Ewing sarcoma, semi-adherent, top dose 20 µM) — lower, 0.971
- SK-HEP-1 (liver, adherent, top dose 20 µM) — higher, 0.989
- SK-LMS-1 (soft tissue, adherent, top dose 20 µM) — lower, 0.897
- SK-LU-1 (lung adenocarcinoma, adherent, top dose 20 µM) — the same, 0.98
- SK-MEL-1 (melanoma, suspension, top dose 20 µM) — higher, 0.993
- SK-MEL-2 (melanoma, adherent, top dose 20 µM) — higher, 0.981
- SK-MEL-3 (melanoma, adherent, top dose 20 µM) — lower, 0.957
- SK-MEL-5 (melanoma, adherent, top dose 20 µM) — lower, 0.974
- SK-MEL-24 (melanoma, adherent, top dose 20 µM) — higher, 0.983
- SK-MEL-28 (melanoma, adherent, top dose 20 µM) — higher, 0.981
- SK-MEL-30 (melanoma, adherent, top dose 20 µM) — higher, 0.982
- SK-MES-1 (lung squamous cell carcinoma, adherent, top dose 20 µM) — lower, 0.978
- SK-MG-1 (glioma, adherent, top dose 20 µM) — higher, 0.987
- SK-MM-2 (myeloma, suspension, top dose 20 µM) — lower, 0.946
- SK-N-AS (neuroblastoma, adherent, top dose 20 µM) — higher, 0.984
- SK-N-DZ (neuroblastoma, adherent, top dose 20 µM) — higher, 0.982
- SK-N-FI (neuroblastoma, adherent, top dose 20 µM) — lower, 0.977
- SK-N-SH (neuroblastoma, adherent, top dose 20 µM) — lower, 0.943
- SK-OV-3 (ovary, adherent, top dose 20 µM) — lower, 0.954
- SK-PN-DW (Ewing sarcoma, adherent, top dose 20 µM) — lower, 0.971
- SK-UT-1 (soft tissue, adherent, top dose 20 µM) — higher, 0.989
- SKG-IIIa (cervix, adherent, top dose 20 µM) — higher, 0.982
- SKN (uterus, adherent, top dose 20 µM) — lower, 0.961
- SKN-3 (head and neck, adherent, top dose 20 µM) — lower, 0.97
- SLVL (B-cell lymphoma, suspension, top dose 20 µM) — lower, 0.912
- SN12C (kidney, adherent, top dose 20 µM) — higher, 0.981
- SNB75 (glioma, adherent, top dose 20 µM) — lower, 0.932
- SNG-M (endometrium, adherent, top dose 20 µM) — lower, 0.949
- SNU-61 (large intestine, adherent, top dose 20 µM) — higher, 0.985
- SNU-81 (large intestine, adherent, top dose 20 µM) — higher, 0.981
- SNU-175 (large intestine, suspension, top dose 20 µM) — higher, 0.985
- SNU-182 (liver, adherent, top dose 10.24 µM) — lower, 0.957
- SNU-387 (liver, adherent, top dose 20 µM) — higher, 0.983
- SNU-398 (liver, adherent, top dose 20 µM) — lower, 0.702
- SNU-407 (large intestine, adherent, top dose 20 µM) — lower, 0.956
- SNU-423 (liver, adherent, top dose 20 µM) — lower, 0.741
- SNU-449 (liver, adherent, top dose 20 µM) — lower, 0.972
- SNU-475 (liver, adherent, top dose 20 µM) — lower, 0.971
- SNU-1040 (large intestine, adherent, top dose 20 µM) — lower, 0.971
- SNU-C1 (large intestine, suspension, top dose 20 µM) — lower, 0.953
- SNU-C2B (large intestine, adherent, top dose 20 µM) — lower, 0.961
- SNU-C5 (large intestine, adherent, top dose 20 µM) — lower, 0.973
- SR (lymphoid neoplasm, suspension, top dose 20 µM) — lower, 0.275
- ST486 (Burkitt lymphoma, suspension, top dose 20 µM) — lower, 0.75
- STS-0421 (soft tissue, adherent, top dose 20 µM) — lower, 0.837
- SU8686 (pancreas, adherent, top dose 20 µM) — higher, 0.986
- SU-DHL-1 (anaplastic large cell lymphoma, suspension, top dose 20 µM) — higher, 0.992

Point of comparison: “SNU-398 (liver, adherent, top dose 20 µM)”, IC50 4.74 µM. Against it:
- RPMI-8226 (myeloma, suspension, top dose 20 µM) — higher, > 20 µM
- RPMI-8402 (T-cell lymphoblastic leukaemia, suspension, top dose 20 µM) — within 1.5-fold, 5.42 µM
- RPMI-8866 (chronic myeloid leukaemia, suspension, top dose 20 µM) — higher, > 20 µM
- RS4-11 (leukaemia, suspension, top dose 20 µM) — higher, > 20 µM
- RT4 (bladder, adherent, top dose 20 µM) — higher, > 20 µM
- RT-112 (bladder, adherent, top dose 20 µM) — higher, > 20 µM
- RVH-421 (melanoma, adherent, top dose 20 µM) — higher, > 20 µM
- RXF393 (kidney, adherent, top dose 20 µM) — higher, > 20 µM
- Raji (Burkitt lymphoma, suspension, top dose 20 µM) — higher, > 20 µM
- Ramos-2G6-4C10 (Burkitt lymphoma, suspension, top dose 20 µM) — 3.4-fold higher, 16 µM
- SAS (head and neck, adherent, top dose 20 µM) — higher, > 20 µM
- SAT (head and neck, adherent, top dose 20 µM) — higher, > 20 µM
- SBC-1 (small cell lung carcinoma, suspension, top dose 20 µM) — higher, > 20 µM
- SBC-3 (small cell lung carcinoma, adherent, top dose 20 µM) — higher, > 20 µM
- SBC-5 (small cell lung carcinoma, adherent, top dose 20 µM) — higher, > 20 µM
- SCC90 (head and neck, adherent, top dose 20 µM) — 4.1-fold higher, 19.3 µM
- SCC-3 (B-cell lymphoma, suspension, top dose 20 µM) — higher, > 20 µM
- SCC-4 (head and neck, adherent, top dose 20 µM) — higher, > 20 µM
- SCC-9 (head and neck, adherent, top dose 20 µM) — higher, > 20 µM
- SCC-15 (head and neck, adherent, top dose 20 µM) — higher, > 20 µM
- SCC-25 (head and neck, adherent, top dose 20 µM) — higher, > 20 µM
- SCH (stomach, adherent, top dose 20 µM) — higher, > 20 µM
- SF126 (glioma, adherent, top dose 20 µM) — higher, > 20 µM
- SF268 (glioma, adherent, top dose 20 µM) — higher, > 20 µM
- SF295 (glioma, adherent, top dose 20 µM) — higher, > 20 µM
- SF539 (glioma, adherent, top dose 20 µM) — higher, > 20 µM
- SH-4 (melanoma, adherent, top dose 20 µM) — higher, > 20 µM
- SHP-77 (small cell lung carcinoma, semi-adherent, top dose 20 µM) — higher, > 20 µM
- SIG-M5 (acute myeloid leukaemia, suspension, top dose 20 µM) — 3.1-fold lower, 1.52 µM
- SIMA (neuroblastoma, adherent, top dose 20 µM) — higher, > 20 µM
- SISO (cervix, adherent, top dose 20 µM) — higher, > 20 µM
- SJRH30 (rhabdomyosarcoma, adherent, top dose 20 µM) — higher, > 20 µM
- SJSA-1 (bone, adherent, top dose 20 µM) — higher, > 20 µM
- SK-CO-1 (large intestine, adherent, top dose 20 µM) — higher, > 20 µM
- SK-ES-1 (Ewing sarcoma, semi-adherent, top dose 20 µM) — higher, > 20 µM
- SK-GT-4 (oesophagus, adherent, top dose 20 µM) — higher, > 20 µM
- SK-HEP-1 (liver, adherent, top dose 20 µM) — higher, > 20 µM
- SK-LMS-1 (soft tissue, adherent, top dose 20 µM) — higher, > 20 µM
- SK-LU-1 (lung adenocarcinoma, adherent, top dose 20 µM) — higher, > 20 µM
- SK-MEL-1 (melanoma, suspension, top dose 20 µM) — higher, > 20 µM
- SK-MEL-2 (melanoma, adherent, top dose 20 µM) — higher, > 20 µM
- SK-MEL-3 (melanoma, adherent, top dose 20 µM) — higher, > 20 µM
- SK-MEL-5 (melanoma, adherent, top dose 20 µM) — higher, > 20 µM
- SK-MEL-24 (melanoma, adherent, top dose 20 µM) — higher, > 20 µM
- SK-MEL-28 (melanoma, adherent, top dose 20 µM) — higher, > 20 µM
- SK-MEL-30 (melanoma, adherent, top dose 20 µM) — higher, > 20 µM
- SK-MES-1 (lung squamous cell carcinoma, adherent, top dose 20 µM) — higher, > 20 µM
- SK-MG-1 (glioma, adherent, top dose 20 µM) — higher, > 20 µM
- SK-MM-2 (myeloma, suspension, top dose 20 µM) — higher, > 20 µM
- SK-N-AS (neuroblastoma, adherent, top dose 20 µM) — higher, > 20 µM
- SK-N-DZ (neuroblastoma, adherent, top dose 20 µM) — higher, > 20 µM
- SK-N-FI (neuroblastoma, adherent, top dose 20 µM) — higher, > 20 µM
- SK-N-SH (neuroblastoma, adherent, top dose 20 µM) — higher, > 20 µM
- SK-OV-3 (ovary, adherent, top dose 20 µM) — higher, > 20 µM
- SK-PN-DW (Ewing sarcoma, adherent, top dose 20 µM) — higher, > 20 µM
- SK-UT-1 (soft tissue, adherent, top dose 20 µM) — higher, > 20 µM
- SKG-IIIa (cervix, adherent, top dose 20 µM) — higher, > 20 µM
- SKN (uterus, adherent, top dose 20 µM) — higher, > 20 µM
- SKN-3 (head and neck, adherent, top dose 20 µM) — higher, > 20 µM
- SLVL (B-cell lymphoma, suspension, top dose 20 µM) — higher, > 20 µM
- SN12C (kidney, adherent, top dose 20 µM) — higher, > 20 µM
- SNB75 (glioma, adherent, top dose 20 µM) — higher, > 20 µM
- SNG-M (endometrium, adherent, top dose 20 µM) — higher, > 20 µM
- SNU-61 (large intestine, adherent, top dose 20 µM) — higher, > 20 µM
- SNU-81 (large intestine, adherent, top dose 20 µM) — higher, > 20 µM
- SNU-175 (large intestine, suspension, top dose 20 µM) — higher, > 20 µM
- SNU-182 (liver, adherent, top dose 10.24 µM) — higher, > 10.2 µM
- SNU-387 (liver, adherent, top dose 20 µM) — higher, > 20 µM
- SNU-407 (large intestine, adherent, top dose 20 µM) — higher, > 20 µM
- SNU-423 (liver, adherent, top dose 20 µM) — within 1.5-fold, 7.01 µM
- SNU-449 (liver, adherent, top dose 20 µM) — higher, > 20 µM
- SNU-475 (liver, adherent, top dose 20 µM) — higher, > 20 µM
- SNU-1040 (large intestine, adherent, top dose 20 µM) — higher, > 20 µM
- SNU-C1 (large intestine, suspension, top dose 20 µM) — higher, > 20 µM
- SNU-C2B (large intestine, adherent, top dose 20 µM) — higher, > 20 µM
- SNU-C5 (large intestine, adherent, top dose 20 µM) — higher, > 20 µM
- SR (lymphoid neoplasm, suspension, top dose 20 µM) — 15-fold lower, 0.311 µM
- ST486 (Burkitt lymphoma, suspension, top dose 20 µM) — within 1.5-fold, 5.88 µM
- STS-0421 (soft tissue, adherent, top dose 20 µM) — 3.5-fold higher, 16.7 µM
- SU8686 (pancreas, adherent, top dose 20 µM) — higher, > 20 µM
- SU-DHL-1 (anaplastic large cell lymphoma, suspension, top dose 20 µM) — higher, > 20 µM

The IC50 comes from the fitted curve, where viability falls to half of the control; fits outside the tested doses are given as limits. The AUC spans the tested range (256-fold, ending at the top dose) of the same fit; it is 1 without any effect and falls as sensitivity rises. The top dose, if marked as inferred, was calculated from the reported fits.
